# The campaign covered roughly 480,000 compounds. About 740 (0.15%) were called active. The shares of active, inactive and inconclusive entries below differ from those in the screen. Cut-off read from the data, not from the text of the source: active = activity change below about -30%; inconclusive = mostly about -25% to -30%; inactive = weaker than that.
# Molecular target: L-lactate dehydrogenase A chain (Homo sapiens) (UniProt P00338)
# Test: qHTS assay for inhibitors of human lactate dehydrogenase;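 note: values are at about 110 or 230 µM; plate controls were DMSO wells for no effect and wells without enzyme for full effect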
# Settings: purified LDHA, NADH/diaphorase-resazurin fluorescence; hits give low values
# From the text: LDH is a key glycolytic enzyme that catalyzes the final step in the glycolytic pathway, reducing pyruvate to lactate and regenerating NAD+ equivalents necessary for continued glycolysis. LDHA has been linked to the carcinogenesis and malignancy in numerous forms of cancers and many other diseases. Consequently, both pharma and academia have invested in significant research efforts to identify small molecule therapeutics. Such attempts have been stalled or abandoned due to limited success in discovering potent and drug-like inhibitors that can be utilized to validate LDHA in vivo as a drug target, a necessary step toward advancing such a molecule towards the clinic Towards this goal we designed and performed a quantitative high-throughput screening (qHTS) campaign to discover novel compounds that are potent inhibitors of LDHA enzyme activity and cancer cell line growth.
# The assay was optimized to 1536-well plates. Briefly, 3 µL of human lactate dehydrogenase 5 (#A38558H, Meridian Life Science, Inc., Memphis, TN) in LDH assay buffer (200 mM Tris HCl pH 7.4, 100 microM EDTA and 0.01% Tween-20) was added to a black solid bottom 1536-well assay plate (Greiner Bio-One) using a BioRAPTR FRD dispenser (Beckman Coulter, Brea, CA). A 1536-well pintool dispenser outfitted with 20 nL pins (Wako Automation, San Diego, CA) was used to transfer 23 nL of DMSO-solubilized compound (both library and vehicle controls) to each 1536-well assay plate. Following compound transfer, 1 µL of substrate solution containing NADH and sodium pyruvate (Sigma-Aldrich, St. Louis, MO) in LDH assay buffer was dispensed via BioRAPTR FRD to initiate the reaction. Final concentrations in the 4 microL reaction volume were 2 nM LDHA enzyme, 0.06 mM NADH and 0.2 mM sodium pyruvate. Following a 5 minute incubation period at room temperature, 1 µL of detection reagent (C. kluyveri diaphorase (Sigma-Aldrich) and resazurin sodium salt (Sigma-Aldrich) in LDH assay buffer) was added to a total volume of 5 µL. Final concentrations of detection reagents were 0.133 mg/mL diaphorase and 37 µM resazurin. Plates were immediately transferred to a ViewLux microplate imager (PerkinElmer, Waltham, MA), and any resulting resorufin fluorescence was measured (ex540, em590 nm) at 0 and 20 minutes. Fluorescence was normalized using enzyme-free and DMSO-treated control wells on each plate.
row,SMILES,activity change
1,CCOc1cc(CNCCc2c[nH]c3ccc(OC)cc23)ccc1O,inconclusive: -26.9%
2,Cc1ccccc1CN1CCN(C(=O)Cc2ccccc2)CC1,inconclusive: -27.1%
3,CN1C(=O)C(=Cc2ccccc2OCc2ccc(C(=O)O)cc2)C(=O)N(C)C1=O,active: -34.7%
4,O=C1NC(=O)N(Cc2cccs2)C(=O)/C1=C/c1ccc(N2CCOCC2)cc1,active: -46.3%
5,C[C@@H]1CN([C@H](C)CO)C(=O)CCCn2cc(nn2)CO[C@H]1CN(C)C(=O)Oc1ccc2ccccc2c1,inconclusive: -26.9%
6,C[N+]1(CC(COCc2ccccc2)OC(=O)Cc2ccccc2)CCOCC1 (stereo not drawn),inconclusive: -25.3%
7,COc1ccc(CCN(C)Cc2ccc(F)cc2F)cc1OC,inconclusive: -27.7%
8,O=C(COc1ccc(Br)cc1)N1CCN(Cc2ccncc2)CC1,active: -38.8%
9,Clc1ccccc1CN1CCN(c2ccccc2)CC1,inactive: -10.3%
10,Cc1cc(C=C2C(=O)N(C)C(=S)N(C)C2=O)c(C)n1-c1cccnc1,inactive: 13.6%
11,C[C@]12CCC3C(CC[C@H]4C[C@@H](O)CC[C@]34C)[C@H]1C=CC2=O (stereo partly drawn),inactive: 1.36%
12,C=CCOC(=O)N1Cc2ccccc2-n2nncc2C1,inconclusive: -25.3%
13,CCN(CC)CCNCC(=O)Nc1ccc(Cl)cc1C(=O)c1ccccc1,inconclusive: -26%
14,C[N+]12CN3CN(CN(C3)C1)C2,active: -52.1%
15,CCOc1ccc(CN(CCc2ccc3c(c2)OCO3)Cc2ccc(OC)c(Br)c2)cc1,inconclusive: -25.6%
16,COc1ccc2c3c1OC1C(O)C=CC4C(C2)[N+](C)(C)CCC341 (stereo not drawn),active: -72.2%
17,COc1ccc(-c2c(C)c3cc(OC(=O)N(C)C)ccc3oc2=O)cc1,active: -32.9%
18,O=C1NC(=O)C(=Cc2cccc(OCCOc3ccccc3)c2)C(=O)N1,active: -31.2%
19,Cc1ccc(CN2C3CCCC2CC(NC(=S)NCc2ccccc2)C3)cc1 (stereo not drawn),inactive: -3.31%
20,O=C(Cc1ccccc1)N1CCN(Cc2cccnc2)CC1,inconclusive: -29.2%
21,Fc1ccc(CNCCc2ccccc2)cc1,inconclusive: -26.8%
22,O=C1NC(=S)NC(=O)C1=Cc1ccc(OCc2ccccc2)cc1,inconclusive: -26.4%
23,c1ccc(N2Cc3ccccc3-n3nncc3C2)nc1,inconclusive: -27.1%
24,O=C1NC(=O)N(c2ccc(Cl)cc2)C(=O)/C1=C\c1ccc(Sc2nc3ccccc3[nH]2)o1,active: -76.4%
25,COc1cccc(CCNCc2c(F)cccc2F)c1,inconclusive: -25.1%
26,CCOc1ccc(N2C(=O)NC(=O)/C(=C\c3ccccc3[N+](=O)[O-])C2=O)cc1,active: -52.7%
27,Cc1cccc(CN2CCN(Cc3ccc(Cl)cc3)CC2)c1,inconclusive: -27%

row,SMILES,activity change
1,CC(C)CNC(=O)/C=C/c1ccc(C(C)C)cc1,inactive: 10.1%
2,CCOc1ccc(N=C2SCCCN2C)cc1,inconclusive: -28.6%
3,CCOc1ccc(N2C(=O)/C(=C/c3ccco3)C(=O)NC2=S)cc1,active: -36.9%
4,Cc1ccc(CNCCc2ccccc2)s1,inactive: -1.28%
5,O=C1NC(=O)N(c2ccccc2)C(=O)/C1=C/c1ccc(Sc2ccccc2)o1,inactive: -12.6%
6,COc1ccc(N2C(=O)NC(=O)/C(=C\c3ccccc3[N+](=O)[O-])C2=O)cc1,inconclusive: -29.1%
7,CC(C)N1C(=O)CC2(CC[N+](C)(CCOC(=O)C(O)(c3ccccc3)c3ccccc3)CC2)C1=O (stereo not drawn),active: -34.3%
8,O=C1CC(=O)N(c2ccc(Cl)cc2Cl)C(=O)N1,inconclusive: -29.5%
9,C[N+]1(C)[C@@H]2CC[C@H]1CC(OC(=O)[C@@H](CO)c1ccccc1)C2 (stereo partly drawn),inconclusive: -29.4%
10,O=C(COc1ccccc1)N1CCN(CC2CC=CCC2)CC1 (stereo not drawn),inconclusive: -25.9%
11,COc1ccc(/C=C2/C(=O)NC(=S)N(C3CC3)C2=O)cc1CN1C(=O)c2ccccc2C1=O,active: -35.7%
12,CNC(=O)OCc1n(C)cc[n+]1C,inconclusive: -30.9%
13,CN1C(=O)C(=Cc2ccccc2OCc2ccccc2Cl)C(=O)N(C)C1=O,active: -45%
14,OCCSCCSCCO,inactive: -2.21%
15,O=C(Nc1cc[c]([Sb](=[O])([OH])[OH])cc1)c1ccccc1,inconclusive: -28.3%
16,O=C1NC(=O)C(=Cc2csc3ccccc23)C(=O)N1,inconclusive: -28.7%
17,COc1ccccc1C=C1C(=O)NC(=S)NC1=O,active: -56.7%
18,CN1CCN(CC#CCOc2ccc(Cl)cc2)CC1,inconclusive: -28.9%
19,CN1OC[C@@H]2CN[C@H](c3ccc(Br)cc3)C[C@@H]21,inconclusive: -28.1%
20,Cc1ccc(CN2CCN(Cc3ccccc3F)CC2)cc1,active: -34.9%
21,N#Cc1ccc(NC(=O)CN2CCc3sccc3C2c2cccs2)cc1Cl (stereo not drawn),inactive: 10%
22,COc1ccc(CN2C(=O)NC(=O)/C(=C\c3cccc(OC)c3OC)C2=O)cc1,active: -31.2%
23,CCOC(=O)/C(CCCN(CC)CC)=N\O,inconclusive: -25.3%
24,CN(C)CCCNCC(=O)Nc1ccc(Cl)cc1C(=O)c1ccccc1,inconclusive: -27.2%
25,O=C1NC(=O)C(=Cc2cc(Cl)ccc2OCc2ccc(C(=O)O)cc2)C(=O)N1,active: -89.9%
26,N#Cc1ccc(NC(=O)CSc2ccc3c(c2)OCCCO3)cc1Cl,inconclusive: -27.2%

# Reference: PubChem BioAssay AID1347041 (National Center for Advancing Translational Sciences (NCATS), 2019)
